Measured values as given in the supplement of paper PMC4967469.
By IC50 is meant the dose at which the fit gives 50% viability; where the fit passes the top or lowest dose, that dose stands as a limit. AUC sums up the same curve from the lowest dose to the 256-fold higher top dose; the more sensitive the line, the further below 1. For some assays here: A top dose marked as inferred comes from the curve model; the source does not state it.

What was measured:
Test in all cases: Viability of human cancer cell lines after 72 h of drug (GDSC screen)
[1] = compound: COc1cc2nccc(Oc3ccc(NC(=O)Nc4cc(C)on4)c(Cl)c3)c2cc1OC [AV-951]; conditions: top dose 0.128 µM; top dose inferred
Protocol: (§1)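 Human cancer cell lines in 384-well plates, medium with 10% serum, drug for 72 h over a 256-fold dose range (nine 2-fold or five 4-fold steps up to the top dose). Adherent lines were fixed and stained with the nucleic acid dye Syto60, suspension lines read with resazurin; signal relative to control wells, capped at 0 and 100%. One two-parameter sigmoid per drug and line, fitted in a mixed model over all curves with the slope shared within a line.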

[2] = compound: CCc1cncnc1N1CCN(Cc2nc3ccc(C(F)(F)F)cc3[nH]2)CC1 [PF-4708671]; conditions: top dose 10 µM; top dose inferred
Protocol: as §1

[3] = compound: Nc1ccccc1NC(=O)c1ccc(CNC(=O)OCc2cccnc2)cc1 [MS-275]; conditions: top dose 5 µM; top dose inferred
Protocol: as §1

[4] = compound: CC(=O)Nc1cccc(-n2c(=O)n(C3CC3)c(=O)c3c(Nc4ccc(I)cc4F)n(C)c(=O)c(C)c32)c1 [Trametinib]; conditions: top dose 1 µM
Protocol: as §1

[5] = compound: CCN1CCN(Cc2ccc(NC(=O)c3ccc(C)c(/C=C/c4cnc5[nH]ccc5c4OC)c3)cc2C(F)(F)F)CC1 [HG-6-64-1]; conditions: top dose 5.12 µM; top dose inferred
Protocol: as §1

[6] = compound: CCNC(=O)C[C@@H]1N=C(c2ccc(Cl)cc2)c2cc(OC)ccc2-n2c(C)nnc21 [I-BET-762]; conditions: top dose 20 µM; top dose inferred
Protocol: as §1

[7] = compound: O=C(NC(COc1ccc2[nH]c(=O)[nH]c2c1)c1ccccc1)c1cccn(Cc2ccc(F)c(F)c2)c1=O [KIN001-244]; conditions: top dose 20 µM; top dose inferred
Protocol: as §1

Cell Line | AUC [1] | IC50 [1] [µM] | AUC [2] | IC50 [2] [µM] | AUC [3] | IC50 [3] [µM] | AUC [4] | IC50 [4] [µM] | AUC [5] | IC50 [5] [µM] | AUC [6] | IC50 [6] [µM] | AUC [7] | IC50 [7] [µM]
8-MG-BA (glioma, adherent) | 0.98 | > 0.128 | 0.976 | > 10 | 0.725 | 1.3 | 0.802 | 0.457 | 0.406 | 0.179 | 0.973 | > 20 | 0.85 | 13.7
A3-KAW (B-cell lymphoma, suspension) | 0.992 | > 0.128 | 0.957 | > 10 | 0.447 | 0.231 | 0.286 | 0.0181 | 0.722 | 1.16 | 0.367 | 0.582 | 0.808 | 7.89
A4-Fuk (B-cell lymphoma, suspension) | 0.983 | > 0.128 | 0.975 | > 10 | 0.644 | 0.799 | 0.712 | 0.255 | 0.559 | 0.466 | 0.871 | > 20 | 0.534 | 1.56
A101D (melanoma, adherent) | 0.981 | > 0.128 | 0.981 | > 10 | 0.551 | 0.446 | 0.237 | 0.00889 | 0.539 | 0.42 | 0.917 | > 20 | 0.817 | 14.5
A253 (head and neck, adherent) | 0.988 | > 0.128 | – | – | 0.913 | > 5 | 0.863 | 0.832 | 0.598 | 0.588 | 0.989 | > 20 | 0.932 | > 20
A388 (skin, adherent) | 0.982 | > 0.128 | 0.946 | > 10 | 0.733 | 1.62 | 0.888 | > 1 | 0.877 | > 5.12 | 0.983 | > 20 | 0.859 | > 20
ALL-PO (lymphoblastic leukaemia, suspension) | 0.983 | > 0.128 | 0.777 | 4.25 | 0.258 | 0.0606 | 0.978 | > 1 | 0.558 | 0.466 | 0.438 | 0.837 | 0.591 | 2.26
ALL-SIL (T-cell leukaemia, suspension) | 0.62 | 0.0162 | – | – | 0.414 | 0.188 | 0.913 | > 1 | 0.047 | < 0.02 | 0.709 | 4.4 | 0.611 | 2.41
AM-38 (glioma, semi-adherent) | 0.977 | > 0.128 | 0.963 | > 10 | 0.983 | > 5 | 0.981 | > 1 | 0.812 | 2.81 | 0.96 | > 20 | 0.658 | 3.46
AMO-1 (haematopoietic neoplasm, suspension) | 0.983 | > 0.128 | 0.974 | > 10 | 0.752 | 1.45 | 0.885 | 0.825 | 0.934 | > 5.12 | 0.685 | 3.77 | 0.747 | 5.63
ARH-77 (myeloma, suspension) | 0.98 | > 0.128 | 0.918 | > 10 | 0.544 | 0.41 | 0.941 | > 1 | 0.796 | 2.29 | 0.835 | 12.4 | 0.867 | 16.9
ATN-1 (T-cell lymphoblastic leukaemia, suspension) | 0.983 | > 0.128 | 0.909 | > 10 | 0.513 | 0.338 | 0.986 | > 1 | 0.981 | > 5.12 | 0.928 | > 20 | 0.85 | 13.7
BB30-HNC (head and neck, adherent) | 0.985 | > 0.128 | 0.968 | > 10 | 0.726 | 1.35 | 0.398 | 0.0331 | 0.517 | 0.357 | 0.912 | > 20 | 0.867 | 17.5
BB49-HNC (head and neck, adherent) | 0.978 | > 0.128 | 0.874 | > 10 | 0.745 | 2.15 | 0.232 | 0.00732 | 0.786 | 3.26 | 0.964 | > 20 | 0.972 | > 20
BB65-RCC (kidney, adherent) | 0.981 | > 0.128 | 0.982 | > 10 | 0.764 | 2.08 | 0.494 | 0.0601 | 0.79 | 2.66 | 0.977 | > 20 | 0.897 | > 20
Becker (glioma, adherent) | 0.98 | > 0.128 | – | – | 0.882 | > 5 | 0.516 | 0.0694 | 0.397 | 0.161 | 0.948 | > 20 | 0.875 | > 20
COLO-824 (breast, adherent) | 0.986 | > 0.128 | – | – | 0.98 | > 5 | 0.949 | > 1 | 0.933 | > 5.12 | 0.929 | > 20 | 0.841 | 14.3
DB (B-cell lymphoma, suspension) | 0.98 | > 0.128 | – | – | 0.756 | 1.91 | 0.863 | > 1 | 0.705 | 1.31 | 0.481 | 1.1 | 0.85 | 18.3
ES3 (Ewing sarcoma, adherent) | 0.978 | > 0.128 | – | – | 0.945 | > 5 | 0.93 | > 1 | 0.815 | 3 | 0.761 | 7.43 | 0.835 | 14.1
EoL-1-cell (haematopoietic neoplasm, suspension) | – | – | 0.826 | 5.12 | 0.985 | > 5 | 0.149 | 0.00617 | 0.046 | < 0.02 | 0.592 | 2.16 | 0.759 | 6.26

Cell Line | AUC [1] | IC50 [1] [µM] | AUC [2] | IC50 [2] [µM] | AUC [3] | IC50 [3] [µM] | AUC [4] | IC50 [4] [µM] | AUC [5] | IC50 [5] [µM] | AUC [6] | IC50 [6] [µM] | AUC [7] | IC50 [7] [µM]
Hs-445 (Hodgkin lymphoma, suspension) | 0.983 | > 0.128 | – | – | 0.762 | 1.66 | 0.894 | > 1 | 0.744 | 1.5 | 0.864 | 15.3 | 0.892 | > 20
IST-SL2 (small cell lung carcinoma, suspension) | 0.968 | > 0.128 | 0.969 | > 10 | 0.771 | 1.9 | 0.973 | > 1 | 0.627 | 0.716 | 0.984 | > 20 | – | –
KCL-22 (chronic myeloid leukaemia, suspension) | 0.883 | 0.0991 | – | – | 0.635 | 0.688 | 0.704 | 0.209 | 0.175 | 0.042 | 0.723 | 4.74 | 0.806 | 8.24
KOPN-8 (B-cell leukaemia, suspension) | 0.981 | > 0.128 | – | – | 0.554 | 0.429 | 0.955 | > 1 | 0.763 | 1.6 | 0.478 | 1.1 | 0.747 | 5.6
KP-N-YN (neuroblastoma, adherent) | 0.986 | > 0.128 | – | – | 0.727 | 1.49 | 0.895 | > 1 | 0.93 | > 5.12 | 0.912 | > 20 | 0.968 | > 20
LB647-SCLC (small cell lung carcinoma, semi-adherent) | – | – | 0.984 | > 10 | 0.545 | 0.42 | 0.981 | > 1 | 0.948 | > 5.12 | 0.941 | > 20 | – | –
MFH-ino (soft tissue, adherent) | 0.983 | > 0.128 | – | – | 0.802 | 2.97 | 0.461 | 0.0482 | 0.626 | 0.758 | 0.959 | > 20 | 0.824 | 14.8
MMAC-SF (melanoma, adherent) | 0.986 | > 0.128 | – | – | 0.825 | 3.16 | 0.067 | < 0.00391 | 0.72 | 1.39 | 0.935 | > 20 | 0.986 | > 20
MOLM-13 (acute myeloid leukaemia, suspension) | 0.838 | 0.0788 | 0.902 | > 10 | 0.501 | 0.315 | 0.465 | 0.0506 | 0.338 | 0.117 | – | – | 0.479 | 1.1
NALM-6 (B-cell leukaemia, suspension) | 0.99 | > 0.128 | 0.904 | 9.57 | 0.608 | 0.586 | 0.988 | > 1 | 0.629 | 0.68 | – | – | 0.432 | 0.841
NB17 (neuroblastoma, adherent) | 0.964 | > 0.128 | – | – | 0.583 | – | 0.98 | > 1 | 0.785 | 2.55 | 0.945 | > 20 | 0.809 | 12.4
NCI-H526 (small cell lung carcinoma, suspension) | 0.989 | > 0.128 | 0.965 | > 10 | 0.617 | 0.645 | 0.985 | > 1 | 0.883 | 5.06 | – | – | 0.895 | > 20
RL95-2 (endometrium, adherent) | 0.987 | > 0.128 | – | – | 0.721 | 1.31 | 0.189 | 0.00749 | 0.789 | 2.23 | 0.94 | > 20 | 0.857 | 16
RPMI-8402 (T-cell lymphoblastic leukaemia, suspension) | 0.982 | > 0.128 | – | – | 0.56 | 0.443 | 0.966 | > 1 | 0.708 | 1.1 | 0.562 | 1.79 | 0.642 | 2.88
Raji (Burkitt lymphoma, suspension) | 0.989 | > 0.128 | 0.971 | > 10 | 0.91 | > 5 | 0.988 | > 1 | 0.923 | > 5.12 | – | – | 0.854 | 14.2
SK-N-FI (neuroblastoma, adherent) | 0.981 | > 0.128 | – | – | 0.853 | 3.88 | 0.601 | 0.118 | 0.989 | > 5.12 | 0.967 | > 20 | 0.895 | > 20
SK-PN-DW (Ewing sarcoma, adherent) | 0.982 | > 0.128 | – | – | 0.689 | 1.08 | 0.973 | > 1 | 0.724 | 1.42 | 0.881 | > 20 | 0.793 | 9.49
TC-71 (Ewing sarcoma, adherent) | 0.992 | > 0.128 | – | – | 0.91 | > 5 | 0.982 | > 1 | 0.992 | > 5.12 | 0.789 | 7.28 | 0.735 | 5.07
TGBC1TKB (biliary tract, adherent) | 0.989 | > 0.128 | – | – | 0.959 | > 5 | 0.886 | > 1 | 0.907 | > 5.12 | 0.983 | > 20 | 0.911 | > 20
WSU-NHL (lymphoid neoplasm, suspension) | 0.988 | > 0.128 | – | – | 0.854 | 3.23 | 0.99 | > 1 | 0.823 | 2.55 | 0.963 | > 20 | 0.89 | 18.2
